Binding signal data for 42 sequences are collected here from publication PMC7819943, “Rice protein-binding microarrays: a tool to detect cis-acting elements near promoter regions in rice”.

Some of the results follow.

The target in this assay is T1, OsWOX13 (Oryza sativa, UniProt Q5QMM3 1-267).
T1 sequence: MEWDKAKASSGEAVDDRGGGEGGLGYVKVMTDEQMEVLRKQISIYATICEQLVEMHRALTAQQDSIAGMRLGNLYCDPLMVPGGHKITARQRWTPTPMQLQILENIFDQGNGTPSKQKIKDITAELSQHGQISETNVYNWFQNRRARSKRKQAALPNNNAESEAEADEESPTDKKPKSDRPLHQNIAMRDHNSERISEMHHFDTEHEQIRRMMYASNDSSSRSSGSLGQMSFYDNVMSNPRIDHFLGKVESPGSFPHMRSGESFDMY
Description: protein-binding microarray (RPBM); PBS, 2% BSA, 51.3 ng/ul salmon testes DNA, 50 uM zinc acetate, 200 nM TF, 25 C, 1 h; high values mean tight binding. As to conditions: protein: recombinant; tags: N-terminal polyhistidine and DsRed monomer fusion (pET32a); label: CyDye5-dUTP incorporated in the synthesized complementary strand; 3' TTTTT single-stranded linker to array surface; dsDNA, one strand shown. In outline: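 Ni–NTA purification followed expression in E. coli BL21-CodonPlus of transcription factors fused N-terminally to a polyhistidine tag and DsRed. At 200 nM in PBS with 2% BSA, salmon testes DNA and 50 µM zinc acetate, the protein was incubated for 1 h at 25 °C with a custom Agilent array that had been primer-extended with Cy5-dUTP and blocked with 2% BSA. After washing, the array was read on an Axon 4000B scanner. The binding signal is per-feature fluorescence intensity in arbitrary units.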
On to “CTGATTGTTTGTTTAGGATTATGATTTAGTAGTGAGGAGACGGAGTCACCTAGTGCAG”, for which the binding signal was 39800 fluorescence intensity (a.u.).
Turning to “ATGTTTTGTTTGATTGTGTGCATGCCCTCTTTCTTATGATCGGAGTCACCTAGTGCAG”, the binding signal was 6380 fluorescence intensity (a.u.).
On to “CAGTAATTTCTATATAGAAAGTTTACGATCGTCTTGCAGTCGGAGTCACCTAGTGCAG”, for which the binding signal was 11700 fluorescence intensity (a.u.).
Take “GCGCGCGCTAATTGGTGGACTCACCCGCGACACAAGTCAACGGAGTCACCTAGTGCAG”: the binding signal was 14900 fluorescence intensity (a.u.).
With “ATTCAATCAACGGAAAGAGATGAGGGAGGCAAAATGGACTCGGAGTCACCTAGTGCAG” the figure was 26500 fluorescence intensity (a.u.); with “TTACTCCAATAGCTTGATTGGTATGGGTTCGAGGAGTGATCGGAGTCACCTAGTGCAG”, 16600 fluorescence intensity (a.u.).
“CACTCAAATAAATTGGAAAATCCCTCCTTTGCTAAATTTCCGGAGTCACCTAGTGCAG”: the binding signal was 9760 fluorescence intensity (a.u.).
Consider “ACTGTAATTTGTTGTTTTGTTTATCTATGGGCTCATGGAACGGAGTCACCTAGTGCAG”, for which the binding signal was 29000 fluorescence intensity (a.u.).
Take “TGGAGGTGGTGGTGGGAGGAAGGGGAGGAGGAGGCGCGGCCGGAGTCACCTAGTGCAG”: the binding signal is 6030 fluorescence intensity (a.u.).
In the case of “TCCACTAATCAATCGACCACACGTTTCGCCCCGCATGCCCCGGAGTCACCTAGTGCAG” it was 13900 fluorescence intensity (a.u.); in that of “AAGATGTGATGAGTGACGATGACATATTGGGCCACATAGGCGGAGTCACCTAGTGCAG”, 10800 fluorescence intensity (a.u.); in that of “TGTGATTTATATCGTGGAAGATGATGGCTTGGCGGTATAGCGGAGTCACCTAGTGCAG”, 36300 fluorescence intensity (a.u.).
With “AGCTTTAATTGAAGTAAATGTTGGGTTTAATATCCGTTAACGGAGTCACCTAGTGCAG”, the binding signal was 23200 fluorescence intensity (a.u.).
As to “AGTTGACAGTTGACAGCGGCGGTGCGCGTGCCGGCCATTGCGGAGTCACCTAGTGCAG”, the binding signal was 8850 fluorescence intensity (a.u.).
Take “GAGGGAGTATATGATTGACATTTGGCATGATTATCTTATTCGGAGTCACCTAGTGCAG”: the binding signal is 15400 fluorescence intensity (a.u.).
With “GCGGTGCAGGGCGGTGGCGGCGGCGGGTGGGGCGGTGGCGCGGAGTCACCTAGTGCAG” the figure was 7550 fluorescence intensity (a.u.).
In the case of “CATGCCACAAATTGTATTAATTGCGGCTGTTTGATACGAGCGGAGTCACCTAGTGCAG” it was 15500 fluorescence intensity (a.u.); in that of “AATTAATTAACTCCTCAAGCCTAACCACACAATTCGACGCCGGAGTCACCTAGTGCAG”, 30200 fluorescence intensity (a.u.); in that of “ATGATAGGATAATCTGGGTAACACATGAAACTTAACTTAGCGGAGTCACCTAGTGCAG”, 10100 fluorescence intensity (a.u.).
Take “CCCGTCATGGTTGATTGTTTTAGGGACGTTACAGATATTTCGGAGTCACCTAGTGCAG”: the binding signal was 6430 fluorescence intensity (a.u.).
In the case of “CAGATTAAAATTTCTGCTCAAGCTAGCCATCGATCATCTGCGGAGTCACCTAGTGCAG” it was 3930 fluorescence intensity (a.u.); in that of “CAGCCAAATTGGACTGGATCAAACCAAGACATAAACTGAACGGAGTCACCTAGTGCAG”, 7250 fluorescence intensity (a.u.); in that of “ATAAAATTAATTTAGTGTTGTTTCTATAAATTTAGTCAAACGGAGTCACCTAGTGCAG”, 30700 fluorescence intensity (a.u.).
With “CGAATTTGTCCAAATTACAATCAAATCTTACTGTTTTAAACGGAGTCACCTAGTGCAG” the figure was 3820 fluorescence intensity (a.u.); with “TACATACATGTTACATAAATTGAATAAATAATTACATAGGCGGAGTCACCTAGTGCAG”, 6600 fluorescence intensity (a.u.).
With “AGAAGTATTTATAATGGTGATTGGTAGATCTTATGATGTTCGGAGTCACCTAGTGCAG” the figure was 18200 fluorescence intensity (a.u.).
Consider “GATGAGGTGACAGCAAGGGAATTGAACTCCAACTACACCACGGAGTCACCTAGTGCAG”, for which the binding signal is 3490 fluorescence intensity (a.u.).
Regarding “CATCAATCACCTCAGCGAACCGTTGCGTGAATTTCTCAAGCGGAGTCACCTAGTGCAG”, the binding signal is 27600 fluorescence intensity (a.u.).
Take “ATTTCATTAATTTTAATCTAGGGCTCTGGACAACTGCTACCGGAGTCACCTAGTGCAG”: the binding signal was 13700 fluorescence intensity (a.u.).
For the sequence “ATAATAAATTTTATCTGCGTTGTACGATATCGATTATTATCGGAGTCACCTAGTGCAG”, the binding signal is 5550 fluorescence intensity (a.u.).
With “GCCGTTGATTTGCAATCAAACGGCCCAGCAACTCGATTAGCGGAGTCACCTAGTGCAG” the figure was 28800 fluorescence intensity (a.u.); with “AATTAATTACATAAAGATTTAGCGCACAAGAGTGAAGTTGCGGAGTCACCTAGTGCAG”, 26500 fluorescence intensity (a.u.).
For the sequence “ATATTTGATCTGACAGTGTAAATTTATCTGATTTGCCTCCCGGAGTCACCTAGTGCAG”, the binding signal was 11000 fluorescence intensity (a.u.).
Turning to “ATTAATGATGATATGAGGCAAAGTGCTGCAAAACGGTATGCGGAGTCACCTAGTGCAG”, the binding signal is 8710 fluorescence intensity (a.u.).
For the sequence “AAGACTAGATTGCCCCTCAGACCAAATGCTTCAAACATGACGGAGTCACCTAGTGCAG”, the binding signal is 5710 fluorescence intensity (a.u.).
“ACTAATGGAACGTTTACCTCGCGATAAACGTATCCAAAATCGGAGTCACCTAGTGCAG”: the binding signal was 4020 fluorescence intensity (a.u.).
“GCTGCAAGATTGGACAGTCAATGAGAGCTTTCTTTTAGGACGGAGTCACCTAGTGCAG”: the binding signal was 11000 fluorescence intensity (a.u.).
As for “TGAAATTGAGTATATACCCAATTCAAATGAGTATGAAATTCGGAGTCACCTAGTGCAG”, the binding signal was 6360 fluorescence intensity (a.u.).
With “TCTCTTAATTGATGTACATATTTGTTATTAACATGTGGACCGGAGTCACCTAGTGCAG” the figure was 34000 fluorescence intensity (a.u.).
Turning to “AGTCGTTTTAATTTTGATTAAAGTAAAACTGTTTTAAATTCGGAGTCACCTAGTGCAG”, the binding signal was 6070 fluorescence intensity (a.u.).
In the case of “ATATATATATATATATATATATAGAGAGAGAGAGAGAGAGCGGAGTCACCTAGTGCAG” it was 17100 fluorescence intensity (a.u.).
Turning to “TTAATTGAAATGCCACCTAAGCACCACGTCAGCACACAGACGGAGTCACCTAGTGCAG”, the binding signal was 27700 fluorescence intensity (a.u.).
